Reference: PubChem BioAssay AID504332 (National Center for Advancing Translational Sciences (NCATS), 2011)
Several values for one entry are separate records, joined by “and”; a condition that tells them apart may be missing. Identical values can stand only once. Out of some 350,000 compounds screened, about 31,000 (8.9%) were called active. The inconclusive results got no clear call from the source; some entries with a clear call stand among them for comparison. Calls come from the whole dose curve; as a rule, active = well fitted inhibition curve with a large enough effect; inconclusive = small, poorly fitted or top-dose-only effect; inactive = no such curve, though single readings can be large or run the other way. Potencies beside an inconclusive call are fits to weak or partial responses and may not hold up. Where a structure was tested more than once in an assay, its records may differ in their call.

biological target: Histone-lysine N-methyltransferase EHMT2 (Homo sapiens) (UniProt Q96KQ7); test: qHTS Assay for Inhibitors of Histone Lysine Methyltransferase G9a; conditions: G9a H3K9 monomethylation, AlphaScreen, 2 h; activity, negative = inhibition: at 59 µM (top of the series) unless noted; note: nearly all actives have a fitted effect of over 75% in size
UniProt Q96KQ7, sequence (Q96KQ7 whole entry, looked up): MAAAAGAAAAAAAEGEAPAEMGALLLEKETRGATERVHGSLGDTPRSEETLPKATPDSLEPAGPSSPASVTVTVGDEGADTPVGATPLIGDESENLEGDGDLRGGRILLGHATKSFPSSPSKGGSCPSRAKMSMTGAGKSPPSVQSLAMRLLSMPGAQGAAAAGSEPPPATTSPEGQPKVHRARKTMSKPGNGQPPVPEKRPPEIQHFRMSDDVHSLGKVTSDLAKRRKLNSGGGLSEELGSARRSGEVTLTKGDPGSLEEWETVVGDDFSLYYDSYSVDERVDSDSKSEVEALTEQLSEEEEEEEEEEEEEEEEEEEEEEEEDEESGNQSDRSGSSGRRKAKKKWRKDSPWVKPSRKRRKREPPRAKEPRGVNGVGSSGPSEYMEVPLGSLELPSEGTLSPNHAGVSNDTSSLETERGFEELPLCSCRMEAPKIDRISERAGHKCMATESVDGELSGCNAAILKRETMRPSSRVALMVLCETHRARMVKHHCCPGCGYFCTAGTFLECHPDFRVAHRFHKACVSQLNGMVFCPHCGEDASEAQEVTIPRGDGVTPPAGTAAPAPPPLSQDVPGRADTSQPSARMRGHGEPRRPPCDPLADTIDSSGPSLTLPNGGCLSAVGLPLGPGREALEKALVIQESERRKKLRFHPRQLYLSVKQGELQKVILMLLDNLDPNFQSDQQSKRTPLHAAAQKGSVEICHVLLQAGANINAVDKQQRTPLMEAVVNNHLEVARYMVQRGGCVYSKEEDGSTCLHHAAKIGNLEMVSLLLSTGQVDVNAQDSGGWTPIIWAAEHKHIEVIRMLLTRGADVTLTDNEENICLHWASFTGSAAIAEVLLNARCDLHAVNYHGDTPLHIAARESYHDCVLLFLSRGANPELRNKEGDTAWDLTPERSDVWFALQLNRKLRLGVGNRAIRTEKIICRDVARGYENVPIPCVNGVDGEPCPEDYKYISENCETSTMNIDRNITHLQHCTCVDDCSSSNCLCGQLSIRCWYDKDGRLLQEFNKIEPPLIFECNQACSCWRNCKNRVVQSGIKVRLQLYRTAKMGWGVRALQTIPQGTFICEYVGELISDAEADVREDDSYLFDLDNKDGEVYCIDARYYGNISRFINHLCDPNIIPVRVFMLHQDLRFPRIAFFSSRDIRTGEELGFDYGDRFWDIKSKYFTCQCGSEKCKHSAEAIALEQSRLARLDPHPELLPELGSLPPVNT
How it was run: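 G9a (20 nM) was preincubated 15 min with compound, then reacted 2 h at room temperature with 500 nM biotin-H3K9 peptide and 20 µM SAM. Monomethyl-H3K9 detected by AlphaScreen using anti-H3K9me1 antibody.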
% is set by controls: 0 for no effect and ±100 for the full control effect; potency is the fitted concentration of half-maximal effect; tags give direction and shape of the fitted curve.

| SMILES | Potency | activity, negative = inhibition |
| --- | --- | --- |
| Cc1ccc(CNc2ccc(CNc3ncn[nH]3)cc2)cc1 | inconclusive: 79.4 µM [inhibitor, single point] |  |
| COc1ccc(N(CC(=O)Nc2ccc(S(=O)(=O)N3CCCC3)cc2)S(C)(=O)=O)cc1OC | inconclusive: 28.2 µM [inhibitor, partial curve, poor fit] |  |
| O=C(c1ccc(Br)s1)N1CCN(C/C=C/c2ccccc2)CC1 |  | inactive: -48% [at 2.33 µM] |
| Cc1nn(C)c(C)c1CN(C)C(=O)c1cc2nc(-c3ccco3)cc(C(F)(F)F)n2n1 | inconclusive: 5.01 µM [inhibitor, single point] |  |
| CCC1Oc2ccc(C)cc2N(CC(=O)N(Cc2ccncc2)Cc2ccco2)C1=O (centres undefined) | inconclusive: 35.5 µM [inhibitor, single point] |  |
| C[C@@H](N)C1CCC(C(=O)Nc2ccncc2)CC1 (some centres undefined) | inactive and active: 29.9 µM |  |
| Cc1ccc(C(=O)Nc2ccccc2Oc2ccccc2)cc1[N+](=O)[O-] | inconclusive: 79.4 µM [inhibitor, single point] |  |
| C[C@]1(C(=O)O)C=C[C@@H](Cc2ccccc2)N1C(=O)c1ccccc1 | inconclusive: 89.1 µM [inhibitor, single point] |  |
| COc1cc(/C=C/c2ccc(O)cc2)cc(OC)c1 | inactive |  |
| COCCCn1c2nc3ccccc3nc2c2c(=O)n(Cc3ccc(Cl)cc3)cnc21 | inactive |  |
| Cc1ccc(Cl)cc1NC(=O)Cn1c(=O)c(CNc2ccccc2)cc2cc3c(cc21)OCCO3 | active: 7.94 µM |  |
| NC(=O)c1ccc(NC(=O)CCC(=O)c2cccs2)cc1 | active: 50.1 µM |  |
| O=C(Nc1ccc(F)cc1F)c1cccn1-c1ncc(C(F)(F)F)cc1Cl | inconclusive: 89.1 µM [inhibitor, single point] |  |
| Cc1cccc(C(=O)N(c2ccccn2)C(C)c2ccco2)c1 (centres undefined) | inactive |  |
| COc1cccc(/C=C2/Sc3ccc(C(=O)NCCN4CCCC4)cc3NC2=O)c1 | inconclusive: 39.8 µM [inhibitor, single point] |  |
| COC(=O)c1cc(Nc2cc(C)nc3ncnn23)cc(C(=O)OC)c1 | inconclusive: 89.1 µM [inhibitor, single point] |  |
| O=C(Nc1ccccc1C(=O)OCc1cc(=O)n2nc(C3CC3)sc2n1)c1cccc(Cl)c1 | inactive |  |
| O=C(Nc1cc(-c2ccccc2)cs1)c1ccco1 | inconclusive: 44.7 µM [inhibitor, partial curve] |  |
| Cc1cc(C)n2nc(C(=O)Nc3ccn(Cc4ccccc4C)n3)cc2n1 | inconclusive: 25.1 µM [inhibitor, full curve] |  |
| CN1CCN(C2=C(Cl)C(=O)N(C3CCCCC3)C2=O)CC1 | active: 39.8 µM |  |
| Cc1sc2ncn(CC(=O)Nc3cccc(C(F)(F)F)c3)c(=O)c2c1S(=O)(=O)N1CCC(C)CC1 | inactive |  |
| CCOc1cc(-c2ccccc2)nc(N)n1 | inconclusive: 44.7 µM [inhibitor, partial curve, poor fit] |  |

| SMILES | Potency | activity, negative = inhibition |
| --- | --- | --- |
| COc1ccc(C(=O)n2cc(C(=O)c3cc(C)ccc3O)cn2)cc1OC | inconclusive: 0.708 µM [inhibitor, partial curve, poor fit] |  |
| CCN(c1cccc(C)c1)S(=O)(=O)c1nnc(NC(=O)c2cccs2)s1 | active: 3.16 µM |  |
| O=C1CC(/C=C/c2ccc(Cl)cc2)=Nc2ccccc2N1 | inconclusive: 79.4 µM [inhibitor, single point] |  |
| COc1ccc(N2C(=O)CC(Sc3nnc(-c4ccccc4F)n3C)C2=O)cc1 (centres undefined) | active: 11.2 µM |  |
| C/C=C(\C)C(=O)Nc1cccc(C2=NOC3(C2)C[C@H](C(N)=O)N(C(=O)c2cc([N+](=O)[O-])cc([N+](=O)[O-])c2)C3)c1 (some centres undefined) | inactive |  |
| Cc1nonc1N1CCN(Cc2cn[nH]c2-c2ccc3c(c2)OCO3)CC1 | inactive |  |
| Cc1ccc(C(=O)NC(NC(=O)c2ccc(C)cc2)c2cccc([N+](=O)[O-])c2)cc1 | inconclusive: 79.4 µM [inhibitor, single point] |  |
| Cn1c(SCC(=O)c2ccc(-c3ccccc3)cc2)nnc1-c1ccco1 | inconclusive: 3.98 µM [inhibitor, single point] |  |
| O=C(Nc1cccc2ccccc12)N1CCc2ccccc2C1 | inconclusive: 20 µM [inhibitor, single point] |  |
| COC(=O)c1ccc(C(=O)OC)c(NC(=S)N2CCN(c3cc(Cl)ccc3C)CC2)c1 | inactive |  |
| Cc1cc(NCCCN(C)C)n2c(nc3ccccc32)c1C#N | inconclusive: 89.1 µM [inhibitor, single point] |  |
| c1cncc(CNc2ncnc3ccc(-c4ccco4)cc23)c1 | inconclusive: 3.98 µM [inhibitor, partial curve, poor fit] |  |
| C#C[C@]1(O)CCC2C3CCC4=CC(=O)CCC4C3CC[C@@]21C (some centres undefined) |  | inactive: -4.27% [at 2.33 µM] |
| COc1cc(CN2CCC(n3nccc3NC(=O)CCCc3ccccc3)CC2)ccc1O | active: 70.8 µM |  |
| Cc1ccoc1C(=O)N1CCN(C(=O)c2occc2C)CC1 | inactive |  |
| Cc1ccc2cc3cc(C(=O)N4CCN(C(=O)c5ccco5)CC4)sc3nc2c1 | inconclusive: 25.1 µM [inhibitor, single point] |  |
| Cc1ccc(NS(=O)(=O)c2cccc(C(=O)Nc3cc(C)on3)c2)cc1 | inconclusive: 89.1 µM [inhibitor, single point] |  |
| CCOc1ccc(C(=O)OCc2cc(=O)n3nc(C4CCCCC4)sc3n2)cc1 | inactive |  |
| O=C(COC(=O)c1cc(Br)ccc1O)Nc1ccc2c(c1)OCCO2 | inconclusive: 25.1 µM [inhibitor, full curve] |  |
| Cc1ccc(NC(=O)CSCc2cc(=O)n3nc(C4CC4)sc3n2)cc1 | inactive |  |
| CCCn1c(C(C)Nc2nc(-c3cc(Cl)c(N)c(Cl)c3)cs2)nc2cc(Cl)c(N3CCCCC3)cc21 (centres undefined) | inconclusive: 100 µM [inhibitor, single point] |  |
| COc1cc(NC(=O)CSCc2cnn(-c3ccccc3)c2-n2cccc2)cc(OC)c1 | inconclusive: 35.5 µM [inhibitor, single point] |  |
